The other results are listed elsewhere or left out.
What was measured:
Assay in all cases: glycan array binding signal (z-score within array); higher = stronger binding
Conditions in all cases: glycan notation: IUPAC condensed, linker removed
[1] = target: Fuc(a1-2)[Gal(a1-3)]Gal(b1-4)GlcNAc(b1-3)GalNAc
Procedure, shortened: (§1)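 Columns mapping to the same glycan were averaged after glycan names were converted to IUPAC-condensed notation. The data come from 3228 arrays in the Consortium for Functional Glycomics database, limited to those with an available protein sequence. Binding is reported as a within-array Z-score averaged across arrays of one protein sequence and across linkers.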

[2] = target: Fuc(a1-2)[Gal(a1-3)]Gal(b1-4)[Fuc(a1-3)]Glc
Procedure, shortened: as §1

[3] = target: Fuc(a1-2)[Gal(a1-3)]Gal(b1-4)[Fuc(a1-3)]GlcNAc
Procedure, shortened: as §1

[4] = target: Fuc(a1-2)[Gal(a1-3)]Gal(b1-4)[Fuc(a1-3)]GlcNAc(b1-3)GalNAc
Procedure, shortened: as §1

[5] = target: Fuc(a1-2)[Gal(a1-4)]Gal(b1-4)GlcNAc
Procedure, shortened: as §1

[6] = target: Fuc(a1-2)[GalNAc(a1-3)]Gal
Procedure, shortened: as §1

[7] = target: Fuc(a1-2)[GalNAc(a1-3)]Gal(b1-3)GalNAc(a1-3)[Fuc(a1-2)]Gal(b1-4)GlcNAc
Procedure, shortened: as §1

[8] = target: Fuc(a1-2)[GalNAc(a1-3)]Gal(b1-3)GlcNAc
Procedure, shortened: as §1

[9] = target: Fuc(a1-2)[GalNAc(a1-3)]Gal(b1-3)GlcNAc(b1-2)Man(a1-3)[Fuc(a1-2)[GalNAc(a1-3)]Gal(b1-3)GlcNAc(b1-2)Man(a1-6)]Man(b1-4)GlcNAc(b1-4)GlcNAc
Procedure, shortened: as §1

[10] = target: Fuc(a1-2)[GalNAc(a1-3)]Gal(b1-3)GlcNAc(b1-3)GalNAc
Procedure, shortened: as §1

[11] = target: Fuc(a1-2)[GalNAc(a1-3)]Gal(b1-4)Glc
Procedure, shortened: as §1

[12] = target: Fuc(a1-2)[GalNAc(a1-3)]Gal(b1-4)GlcNAc
Procedure, shortened: as §1

[13] = target: Fuc(a1-2)[GalNAc(a1-3)]Gal(b1-4)GlcNAc(b1-2)Man(a1-3)[Fuc(a1-2)[GalNAc(a1-3)]Gal(b1-4)GlcNAc(b1-2)Man(a1-6)]Man(b1-4)GlcNAc(b1-4)GlcNAc
Procedure, shortened: as §1

[14] = target: Fuc(a1-2)[GalNAc(a1-3)]Gal(b1-4)GlcNAc(b1-3)Gal(b1-4)GlcNAc
Procedure, shortened: as §1

[15] = target: Fuc(a1-2)[GalNAc(a1-3)]Gal(b1-4)GlcNAc(b1-3)Gal(b1-4)GlcNAc(b1-3)Gal(b1-4)GlcNAc
Procedure, shortened: as §1

[16] = target: Fuc(a1-2)[GalNAc(a1-3)]Gal(b1-4)GlcNAc(b1-3)GalNAc
Procedure, shortened: as §1

[17] = target: Fuc(a1-2)[GalNAc(a1-3)]Gal(b1-4)[Fuc(a1-3)]GlcNAc
Procedure, shortened: as §1

[18] = target: Fuc(a1-2)[GalNAc(a1-3)]Gal(b1-4)[Fuc(a1-3)]GlcNAc(b1-3)GalNAc
Procedure, shortened: as §1

[19] = target: Fuc(a1-2)[GalNAc(a1-4)]Gal(b1-4)GlcNAc
Procedure, shortened: as §1

[20] = target: Fuc(a1-2)[GalNAc(b1-3)]Gal
Procedure, shortened: as §1

Fuc(a1-3)GlcNAc = target: Fuc(a1-3)GlcNAc
Procedure, shortened: as §1

[21] = target: Fuc(a1-3)[Gal(b1-4)]Glc6S
Procedure, shortened: as §1

[22] = target: Fuc(a1-3)[Gal(b1-4)]GlcNAc
Procedure, shortened: as §1

[23] = target: Fuc(a1-3)[Gal(b1-4)]GlcNAc(b1-2)Man(a1-3)[Fuc(a1-3)[Gal(b1-4)]GlcNAc(b1-2)Man(a1-6)]Man(b1-4)GlcNAc(b1-4)GlcNAc
Procedure, shortened: as §1

[24] = target: Fuc(a1-3)[Gal(b1-4)]GlcNAc(b1-2)Man(a1-3)[Fuc(a1-3)[Gal(b1-4)]GlcNAc(b1-2)Man(a1-6)]Man(b1-4)GlcNAc(b1-4)[Fuc(a1-6)]GlcNAc
Procedure, shortened: as §1

[25] = target: Fuc(a1-3)[Gal(b1-4)]GlcNAc(b1-3)Gal(b1-3)[Fuc(a1-4)]GlcNAc
Procedure, shortened: as §1

[26] = target: Fuc(a1-3)[Gal(b1-4)]GlcNAc(b1-3)GalNAc
Procedure, shortened: as §1

[27] = target: Fuc(a1-3)[Gal(b1-4)]GlcNAc(b1-4)Gal(b1-4)[Fuc(a1-3)]GlcNAc
Procedure, shortened: as §1

[28] = target: Fuc(a1-3)[Gal(b1-4)]GlcNAc(b1-4)Gal(b1-4)[Fuc(a1-3)]GlcNAc(b1-4)Gal(b1-4)[Fuc(a1-3)]GlcNAc
Procedure, shortened: as §1

[29] = target: Fuc(a1-3)[Gal(b1-4)]GlcNAc(b1-6)[Gal(b1-3)GlcNAc(b1-3)]Gal(b1-4)Glc
Procedure, shortened: as §1

[30] = target: Fuc(a1-3)[Gal(b1-4)]GlcNAc6S
Procedure, shortened: as §1

[31] = target: Fuc(a1-3)[Gal3S(b1-4)]GlcNAc
Procedure, shortened: as §1

[32] = target: Fuc(a1-3)[Gal3S(b1-4)]GlcNAc6S
Procedure, shortened: as §1

[33] = target: Fuc(a1-3)[GalNAc(b1-4)]GlcNAc
Procedure, shortened: as §1

Fuc(a1-4)GlcNAc = target: Fuc(a1-4)GlcNAc
Procedure, shortened: as §1

Fuc(b1-3)GlcNAc = target: Fuc(b1-3)GlcNAc
Procedure, shortened: as §1

Gal(a1-2)Gal = target: Gal(a1-2)Gal
Procedure, shortened: as §1

Gal(a1-3)Gal = target: Gal(a1-3)Gal
Procedure, shortened: as §1

Gal(a1-3)Gal(b1-3)GlcNAc = target: Gal(a1-3)Gal(b1-3)GlcNAc
Procedure, shortened: as §1

[34] = target: Gal(a1-3)Gal(b1-3)GlcNAc(b1-2)Man(a1-3)[Gal(a1-3)Gal(b1-3)GlcNAc(b1-2)Man(a1-6)]Man(b1-4)GlcNAc(b1-4)GlcNAc
Procedure, shortened: as §1

[35] = target: Gal(a1-3)Gal(b1-3)GlcNAc(b1-3)GalNAc
Procedure, shortened: as §1

[36] = target: Gal(a1-3)Gal(b1-3)[Fuc(a1-4)]GlcNAc(b1-2)Man(a1-3)[Gal(a1-3)Gal(b1-3)[Fuc(a1-4)]GlcNAc(b1-2)Man(a1-6)]Man(b1-4)GlcNAc(b1-4)GlcNAc
Procedure, shortened: as §1

Gal(a1-3)Gal(b1-4)Glc = target: Gal(a1-3)Gal(b1-4)Glc
Procedure, shortened: as §1

Gal(a1-3)Gal(b1-4)GlcNAc = target: Gal(a1-3)Gal(b1-4)GlcNAc
Procedure, shortened: as §1

[37] = target: Gal(a1-3)Gal(b1-4)GlcNAc(b1-3)GalNAc
Procedure, shortened: as §1

B1: Gal 4 (Canis lupus) (protein)
chain: MAYVPAPGYQPTYNPTLPYNKPIPGGLSVGMSVYIQGITSEHMRRFCVNFVAGAHPGSDIAFHFNPRFDGWDKVVFNSHLGGKWGSEEKKRSMPFRKGTHFELVFMVLAEHYKVVVNGNPFYEFGHRLPLQLVTHLQVEGDVELQSINFIGGTQPLGQGPGHTQQQPSSLPTMEGPPVFNPPVPFRKRLQGGLTVRRTVIIKGFVPFTSKSFVINFMVESSGDLALHINPRLTEGLVVRNSCLNGSWGSEDRKLSYNPFIPGQFFDLSIRCGMDRFKVYANGQHLFDFSHRLLALQNVDMLEINGDVTLSYIQV
For B1, the “glycan array binding signal (z-score)” value [1] was -0.147, the “glycan array binding signal (z-score)” value [2] was -0.152 and the “glycan array binding signal (z-score)” value [3] was -0.147. For the same binder, the “glycan array binding signal (z-score)” value [4] was -0.146, the “glycan array binding signal (z-score)” value [5] was -0.142 and the “glycan array binding signal (z-score)” value [6] was -0.155. The “glycan array binding signal (z-score)” value [7] was -0.149, the “glycan array binding signal (z-score)” value [8] was 0.573 and the “glycan array binding signal (z-score)” value [9] was 0.393. For the same binder, the “glycan array binding signal (z-score)” value [10] was -0.136, the “glycan array binding signal (z-score)” value [11] was 5.95 and the “glycan array binding signal (z-score)” value [12] was 2.36. The “glycan array binding signal (z-score)” value [13] was 3.76, the “glycan array binding signal (z-score)” value [14] was 7.32 and the “glycan array binding signal (z-score)” value [15] was 0.359. The “glycan array binding signal (z-score)” value [16] was -0.151, the “glycan array binding signal (z-score)” value [17] was -0.139 and the “glycan array binding signal (z-score)” value [18] was -0.13. For the same binder, the “glycan array binding signal (z-score)” value [19] was -0.106, the “glycan array binding signal (z-score)” value [20] was -0.145 and the “glycan array binding signal (z-score)” value (Fuc(a1-3)GlcNAc) was -0.151. For the same binder, the “glycan array binding signal (z-score)” value [21] was -0.149, the “glycan array binding signal (z-score)” value [22] was -0.151 and the “glycan array binding signal (z-score)” value [23] was -0.146. The “glycan array binding signal (z-score)” value [24] was -0.136, the “glycan array binding signal (z-score)” value [25] was -0.145 and the “glycan array binding signal (z-score)” value [26] was -0.148. For the same binder, the “glycan array binding signal (z-score)” value [27] was -0.145, the “glycan array binding signal (z-score)” value [28] was -0.156 and the “glycan array binding signal (z-score)” value [29] was -0.146. The “glycan array binding signal (z-score)” value [30] was -0.145, the “glycan array binding signal (z-score)” value [31] was -0.146 and the “glycan array binding signal (z-score)” value [32] was -0.126. For the same binder, the “glycan array binding signal (z-score)” value [33] was -0.147, the “glycan array binding signal (z-score)” value (Fuc(a1-4)GlcNAc) was -0.155 and the “glycan array binding signal (z-score)” value (Fuc(b1-3)GlcNAc) was -0.15. The “glycan array binding signal (z-score)” value (Gal(a1-2)Gal) was -0.155, the “glycan array binding signal (z-score)” value (Gal(a1-3)Gal) was -0.15 and the “glycan array binding signal (z-score)” value (Gal(a1-3)Gal(b1-3)GlcNAc) was -0.152. The “glycan array binding signal (z-score)” value [34] was -0.125, the “glycan array binding signal (z-score)” value [35] was -0.149 and the “glycan array binding signal (z-score)” value [36] was -0.131. For the same binder, the “glycan array binding signal (z-score)” value (Gal(a1-3)Gal(b1-4)Glc) was -0.116, the “glycan array binding signal (z-score)” value (Gal(a1-3)Gal(b1-4)GlcNAc) was -0.155 and the “glycan array binding signal (z-score)” value [37] was -0.149.
